# Data reported in PubChem BioAssay AID1347073 (National Center for Advancing Translational Sciences (NCATS), 2019).
# In all, about 45,000 compounds went through this assay and about 200 (0.44%) were called active. Inconclusive results (about 7%) are left out. The call rests on the fitted dose curve; in most records, active means well fitted activation curve with a large enough effect; inconclusive means small, poorly fitted or top-dose-only effect; inactive means no such curve, though single readings can be large or run the other way. Some of the results follow.
# Test: qHTS of TDP-43 Inhibitors: NCGC Sytravon Library Screen; further: 0% is about no effect; nearly all actives have a fitted effect of over 55% in size
# Details: yeast TDP-43 toxicity rescue, BacTiter-Glo growth, 24 h; series mostly up to 46.1 µM; growth rescue (activation): at the top concentration
# Method in brief: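 TDP-43-expressing yeast, pregrown in raffinose, seeded at OD600 0.02 in galactose medium with compound for 24 hr at 30 deg C. Growth read by BacTiter-Glo luminescence, so rescue of toxicity appears as activation.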
row,SMILES,growth rescue (activation)
1,CN1/C(=C\C(=O)CSc2nncn2C)C(C)(C)c2ccccc21,inactive: 24.3%
2,COC(=O)C1CCN(C(=O)C2CC(=O)N(c3ccc(C)c(Cl)c3)C2)CC1 (stereo not drawn),inactive: -7.89%
3,Cc1cc(C)c(C)c(S(=O)(=O)N2CCC(C(=O)NCC(c3ccccc3)N(C)C)CC2)c1C (stereo not drawn),inactive: -4.63%
4,CC(C)CC(OC(=O)c1nsc(Cl)c1Cl)C(=O)NC1CCCC1 (stereo not drawn),inactive: 17%
5,COc1ccc(C(C)(C)C)cc1NC(=O)c1cccc(S(=O)(=O)N2CCN(C(C)=O)CC2)c1,inactive: 12.8%
6,COCCCNC(=S)Nc1cccc(S(=O)(=O)NC2=NCCC2)c1,inactive: 7.52%
7,CCOc1ccc(CN(C)CC(O)COC(c2ccc(OC)cc2)c2ccc(OC)cc2)cc1 (stereo not drawn),inactive: 4.82%
8,Cc1c(CNC(=O)C2CCC(=O)N(CCc3ccccc3)C2)cnn1C (stereo not drawn),inactive: -29%
9,COc1ccccc1NC(=O)c1c(C)nc2ccccc2c1C(=O)O,inactive: 27.6%
10,CCOc1ccc(NC(=S)NCc2nc3ccccc3[nH]2)cc1,inactive: -10.7%
11,O=C(NC(=S)N1CCN(Cc2ccccc2)CC1)c1ccccc1,inactive: 27.2%
12,Cc1ccc(NC(=O)CN2C(=O)C(c3ccc(F)cc3)=NC2(C)C)c(C)c1,inactive: 16.5%
13,CCOC(=O)/C=C(\C)Nc1cc(C)nn1-c1ccccc1,inactive: 25.3%
14,Cc1ccc(NS(=O)(=O)c2cccs2)c(C)c1,inactive: 7.86%
15,O=C(COC(=O)c1cccc([N+](=O)[O-])c1)c1ccc(OCc2ccccc2)cc1,inactive: 15.9%
16,COc1ccc(OC)c(S(=O)(=O)N2CCC(C(=O)N3CCCC3)CC2)c1,inactive: 2.18%
17,O=C(Nc1ccccc1)N(C1=NCCC1)c1ccc(OC(F)F)cc1,inactive: -33.9%
18,CC(NC(=O)COC(=O)[C@@H]1CCCN1S(=O)(=O)c1ccccc1F)C12CC3CC(CC(C3)C1)C2 (stereo partly drawn),inactive: 10.8%
19,O=C(NC1CC1)C1CC(=O)N(c2ccccc2)C1 (stereo not drawn),inactive: 11.7%
20,CCC(C)(c1nnnn1-c1c(C)cccc1C)N(N=O)c1ccccc1Cl (stereo not drawn),inactive: 28.5%
21,COCCNC(=O)C1(C)CCCN(C(=O)c2ccc(OC)cc2OC)C1 (stereo not drawn),inactive: -3.99%
22,O=C(C[n+]1cccc(CNC(=O)c2ccc(OC(F)F)cc2)c1)Nc1ccc(F)cc1,inactive: 0.854%
23,CN1CCc2c(sc(/N=C/c3cc(Cl)ccc3O)c2C#N)C1,inactive: -9.11%

row,SMILES,growth rescue (activation)
1,COc1cccc(NC(=O)CN2C(=O)NC(c3ccccc3)(c3ccccc3)C2=O)c1,inactive: -21.3%
2,CCCNC(=O)OCCC12CC3CC(CC(C3)C1)C2,inactive: 20%
3,CCOc1cc(C(=S)N2CCOCC2)ccc1OS(=O)(=O)c1ccc(C)cc1,inactive: 31%
4,CCOC(=O)Nc1ccc2c(CN3C(=O)NC4(CCCC4)C3=O)cc(=O)oc2c1,inactive: -4.57%
5,COC(=O)C1=CN(C(C)c2ccccc2)C=C(C(=O)OC)C1c1cc(OC)c(OC)c(OC)c1 (stereo not drawn),inactive: 1.18%
6,COc1c(C)cc(C(O)c2ncc(-c3ccccc3)[nH]2)cc1C (stereo not drawn),inactive: 1.16%
7,C=CCNC(=S)N1CCN(c2cc3c(cc2F)c(=O)c(C(=O)O)cn3CC)CC1,inactive: 20.7%
8,c1coc(-c2nnc(-c3ccco3)nn2)c1,inactive: 26.8%
9,O=C(NCCN1CCOCC1)c1ccc2c(c1)N(Cc1ccccc1F)C(=O)CS2,inactive: 12.1%
10,O=C(CSc1nncn1-c1cccnc1)Nc1ccccc1[N+](=O)[O-],inactive: -12.6%
11,COc1cccc(/C=N/NC(=O)c2ccoc2C)c1,inactive: 4.1%
12,CC1C(=O)OC2C1CCC1(C)CCC(=O)C(C)C21 (stereo not drawn),inactive: -5.49%
13,COc1ccc(S(=O)(=O)N2CCN(S(=O)(=O)c3ccc(C(F)(F)F)cc3)CC2)cc1C,inactive: -3.19%
14,Oc1c(Cl)cc(Cl)cc1/C=N/Nc1ncc(Br)cn1,inactive: -31.2%
15,CCOC(=O)C1CCN(C(=O)c2ccc3c(SCC(=O)O)c4c(nc3c2)CCCC4)CC1,inactive: -7.45%
16,Fc1ccc(-c2ccc(CNCc3ccccn3)o2)cc1Cl,inactive: 10.2%
17,COC(=O)c1c(-c2cccs2)csc1NC(=O)COc1ccccc1,inactive: -17.3%
18,CN(C)S(=O)(=O)c1cccc(C(=O)OCC(=O)NCc2ccc3c(c2)OCO3)c1,inactive: 13.4%
19,Cc1cccc(-n2nc([N+](=O)[O-])c(N3CCN(C(=O)c4ccco4)CC3)[n+]2[O-])c1,inactive: 14.1%
20,CCc1nnc(NC(=O)CN2C(=O)CCC2=O)s1,inactive: -22.3%
21,CCC(C)(C)n1nnnc1C(c1ccc2ncccc2c1)N1CCN(c2ccc(O)cc2)CC1 (stereo not drawn),inactive: 1.93%
22,Cn1c(CCN2CCCCC2)nc2cc(NC(=O)Nc3ccccc3)ccc21,inactive: 8.95%
23,C/C(=N\Nc1nc2ccccc2[nH]1)c1cccs1,inactive: 20.4%

row,SMILES,growth rescue (activation)
1,Cc1cc(=O)[nH]c(N/N=C/c2ccc(O)c(O)c2)n1,inactive: 9.78%
2,Cc1cc(C)cc(NC(=S)N=Nc2c(O)n(C)c3ccc(S(=O)(=O)N4CCOCC4)cc23)c1,inactive: 13.9%
3,O=c1[nH]c(C2CCN(S(=O)(=O)c3ccc4c(c3)OCCO4)CC2)nc2c1nnn2Cc1ccc(F)cc1,inactive: 7.35%
4,O=C(CSc1nc2ncc(Br)cc2[nH]1)c1ccc([N+](=O)[O-])cc1,inactive: -27.3%
5,COC(=O)c1c(C)[nH]c(O)c1C=Nc1ccc(C(C)C)cc1,inactive: 11.5%
6,Cc1ccc(NC(=O)CCCN2C(=O)COc3ccc(C)cc32)c(C)c1,inactive: 26.2%
7,Cc1ccc(/C=C/C(=O)NCc2ccccn2)o1,inactive: 11.4%
8,Cc1cccc(C)c1NC(=O)CNC(=O)c1ccc2c(c1)NC(=O)CS2,inactive: 6.08%
9,O=C(c1cc(S(=O)(=O)N2CCOCC2)ccc1F)N1CCCc2ccccc21,inactive: 14.3%
10,Clc1ccccc1-c1nnc(CNC2CC2)o1,inactive: 9.27%
11,Cc1ccc(S(=O)(=O)NCC(=O)N2CCOCCOCCOCC2)cc1,inactive: 14.7%
12,COc1cc(OC)cc(C(=O)Nc2c(C)nn(-c3ccccc3)c2C)c1,inactive: -17.1%
13,O=C(O)c1ccc(N=Nc2c(O)[nH]c3ccccc23)cc1,inactive: 1.14%
14,CC(NC(=O)COc1ncnc2cc([N+](=O)[O-])ccc12)c1ccccc1 (stereo not drawn),inactive: -3.31%
15,CC(=O)NC(c1ccc([N+](=O)[O-])cc1)c1c(O)ccc2ccccc12 (stereo not drawn),inactive: -0.747%
16,Nc1nc(Nc2ccccc2F)nc(N2CCCC2)c1[N+](=O)[O-],inactive: 12.9%
17,CCOc1ccc2nc(NC(=O)c3ccccn3)sc2c1,inactive: 24.2%
18,COc1ccc(NC(=O)C2CC(c3ccccc3O)=NO2)cc1OC (stereo not drawn),inactive: -2.71%
19,COc1cccc(C=Nc2ccc3c(c2)OCCO3)c1O,inactive: -1.57%
20,CC1CCCN(C(=O)COC(=O)Cc2ccc(Cl)cc2)C1 (stereo not drawn),inactive: -2.09%
21,O=C(OCC(=O)N1CCOCC1)c1ccccc1OCc1ccc(Cl)cc1,inactive: 13.9%
22,O=C(O)c1cccnc1Sc1ncnc2sc3c(c12)CCC3,inactive: 28%
